# Results reported in PubChem BioAssay AID488969 (Vanderbilt High Throughput Screening Facility, 2010).
# The full ranking holds about 110,000 compounds; the median of “z-score” is about -0.1, and the highest 2% start at about 2. Some of the results follow.
# Target: Metabotropic glutamate receptor 8 (Rattus norvegicus) (UniProt P70579)
# Test: rat mGluR8 modulators via GIRK flux, primary screen, cell-based, thallium flux, HTS (AID 488969)
# Details: HEK293 rat mGluR8, GIRK (G protein-gated inwardly rectifying potassium channel) thallium flux, FluoZin2; at 10 µM; stronger effect = higher value; submaximal glutamate (EC20) added with thallium
# Chain of UniProt P70579 (P70579 whole entry, looked up): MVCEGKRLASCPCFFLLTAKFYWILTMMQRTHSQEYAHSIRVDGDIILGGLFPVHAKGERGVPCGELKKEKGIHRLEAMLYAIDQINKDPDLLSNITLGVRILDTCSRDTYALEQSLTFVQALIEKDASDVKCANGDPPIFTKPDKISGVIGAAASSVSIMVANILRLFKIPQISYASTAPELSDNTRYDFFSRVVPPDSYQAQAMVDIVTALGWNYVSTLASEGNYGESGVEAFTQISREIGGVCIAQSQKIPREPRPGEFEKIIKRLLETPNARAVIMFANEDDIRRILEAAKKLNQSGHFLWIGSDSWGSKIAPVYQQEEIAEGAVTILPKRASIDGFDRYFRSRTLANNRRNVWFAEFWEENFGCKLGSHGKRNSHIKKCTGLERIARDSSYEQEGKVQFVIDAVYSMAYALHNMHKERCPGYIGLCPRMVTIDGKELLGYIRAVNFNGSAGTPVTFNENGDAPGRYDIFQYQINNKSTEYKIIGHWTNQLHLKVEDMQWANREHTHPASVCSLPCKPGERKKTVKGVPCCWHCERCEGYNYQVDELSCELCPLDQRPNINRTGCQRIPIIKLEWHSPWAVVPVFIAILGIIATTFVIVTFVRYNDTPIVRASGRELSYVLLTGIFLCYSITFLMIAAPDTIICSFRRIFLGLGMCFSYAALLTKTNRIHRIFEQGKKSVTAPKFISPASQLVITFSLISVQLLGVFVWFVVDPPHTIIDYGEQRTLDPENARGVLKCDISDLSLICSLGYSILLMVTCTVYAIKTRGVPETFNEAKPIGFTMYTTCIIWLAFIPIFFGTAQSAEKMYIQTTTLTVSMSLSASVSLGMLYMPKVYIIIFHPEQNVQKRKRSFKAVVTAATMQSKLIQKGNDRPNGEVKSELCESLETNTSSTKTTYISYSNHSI
row,SMILES,z-score
1,NNC(=O)CSc1c(-c2cccs2)[nH]c2ccccc12,-0.272
2,O=C(Nc1ccc(Cl)cn1)c1ccc(COCC(F)(F)C(F)F)o1,-0.376
3,CNc1cc(CSC)nc(SCc2ccc(Cl)cc2Cl)n1,-0.147
4,Cc1ccc2nc(SCC(=O)Nc3ccccc3N3CCOCC3)c(C#N)cc2c1,-0.168
5,COc1cccc(/C=N/Nc2ncnc(N)c2[N+](=O)[O-])c1OC,0.175
6,COc1ccccc1N1CCN(C(=O)CC2NC3CCCCC3NC2=O)CC1 (stereo not drawn),-0.162
7,CCc1cc(C(=O)Nc2ccc(C)cc2Br)cs1,-1.35
8,Cc1[nH]c2ccccc2c1/C=C(\C#N)S(=O)(=O)c1ccccc1,-0.0303
9,CCN(CC)CCCN1C(=O)c2oc3ccccc3c(=O)c2C1c1cccnc1 (stereo not drawn),0.402
10,Cc1cc(C(=O)N2CCCCCC2)cs1,-0.0614
11,COc1ccc(OC)c(CN2CCN(C(=O)c3cccc4ccccc34)CC2)c1,-0.279
12,COc1ccc(-c2cc(C(F)(F)F)nc(SCC(=O)Nc3cc(C)on3)n2)cc1,0.357
13,CN(C(=O)COC(=O)C1CCN(S(=O)(=O)c2cccs2)CC1)C1CCS(=O)(=O)C1 (stereo not drawn),0.776
14,COC(=O)c1[nH]c2cc(OC)c(OC)cc2c1NC(=O)Oc1ccccc1,-0.318
15,O=C1[C@@H]2C(c3ccccc3Cl)=NO[C@@H]2C(=O)N1Cc1ccccc1,0.171
16,OCCN(CC(O)COc1ccccc1)CC(O)Cn1ccc2ccccc21 (stereo not drawn),0.0905
17,Cc1ccc(OCc2nnc(NC(=O)OCC(C)C)s2)cc1,-0.0417
18,N#Cc1c(SCC(=O)Nc2nccs2)nc2c(c1-c1ccco1)CCCC2,-0.0832
19,COc1ccccc1-n1c(SCC(=O)N2CCc3ccccc32)nc2c(c1=O)SCC2,-0.558
20,COC(=O)c1ccc(OC(=O)c2ccc(OC)c(OC)c2)c(OC)c1,0.0246
21,COc1ccccc1NC(=O)CSc1ncn(-c2ccccc2)n1,-1.05
22,CCOC(=O)C1CCCN(Cc2nc(N)nc(Nc3ccccc3)n2)C1 (stereo not drawn),-0.746

row,SMILES,z-score
1,CCOC(=O)CNC(=S)N(Cc1cccs1)C1CCCC1,0.332
2,O=C(Cn1c(-c2cscn2)nc2ccccc21)Nc1cc(F)ccc1F,-0.259
3,O=C1[C@@H]2Cc3ccccc3CN2C(=O)N1c1cccc(F)c1,0.928
4,O=C(CNC(=O)c1ccc2c(c1)OCCO2)N/N=C/c1ccc(O)cc1O,0.225
5,CCC(C)Sc1nc2c(c(=O)[nH]c(=O)n2C)n1CCc1ccccc1 (stereo not drawn),-0.196
6,c1cnc2ccc(C(c3nnnn3C3CCCCC3)N3CCN4CCCC4C3)cc2c1 (stereo not drawn),-1.16
7,COC(=O)C1=C(N)N(c2ccccc2C(F)(F)F)C2=C(C(=O)CCC2)C1c1ccc2c(c1)OCO2 (stereo not drawn),-0.087
8,COc1cccc(N(C(=O)c2nc3nccc(C)n3n2)c2nc3ccccc3s2)c1,-0.186
9,Cc1ccc(S(=O)(=O)N(C)c2ccc(OCC(=O)O)cc2)cc1,0.0713
10,Cc1occc1-c1nnc(SCC(=O)NC(C)(C)C)n1C(C)c1ccccc1 (stereo not drawn),0.32
11,COc1ccc(-c2c(C#N)c(N)nc3c2CCCCCC3)cc1OC,-0.576
12,Clc1ccc(-c2cc(COc3ccc4ccccc4c3)no2)cc1,-0.057
13,Cn1c(-c2ccc(F)cc2)cnc1SCC(=O)N1CCCc2ccccc21,-0.388
14,COc1cc(OC)cc(C(=O)N2CCC(C(=O)Nc3ccc4c(c3)OCCO4)CC2)c1,-0.273
15,Cc1c(O)ccc(-c2[nH]ncc2-c2nc3ccccc3s2)c1O,-0.116
16,Cc1c(CN2CCC(C)CC2)c(=O)n(-c2ccccc2)n1C,0.419
17,Cc1ccccc1-c1nnc(SCC(=O)Nc2ccc3c(c2)OCCO3)n1N,0.775
18,COc1cccc(N=c2oc3c(C)ncc(CO)c3cc2C(N)=O)c1,-0.0525
19,Cc1noc(C)c1COc1ccc(C(=O)OCC(=O)Nc2ccc3ccccc3c2)cc1,0.103
20,Cc1ccc(-c2nnc3sc(-c4ccncc4)nn23)cc1,-0.701
21,O=C(NCc1cccs1)c1nc2ncccn2n1,-0.124
22,COc1cccc(S(=O)(=O)NCc2ccc(C(=O)NCC3CCCO3)cc2)c1 (stereo not drawn),0.0353

row,SMILES,z-score
1,Cc1ccc(CNC(=O)c2ccccc2NS(C)(=O)=O)cc1,-0.309
2,Cc1nn(CC(=O)Nc2ccccc2)c(=O)c2ccccc12,0.384
3,CC(=O)Nc1cc(C(=O)NCc2ccco2)ccc1Sc1ccc(Cl)cc1,-0.105
4,Cc1ccc(NC(=O)c2cccs2)cc1S(=O)(=O)N(C)C,-0.319
5,O=C(Nc1ccccc1Cl)c1ccccc1S(=O)(=O)c1ccccc1[N+](=O)[O-],-0.14
6,CC(=O)c1ccc(NC(=O)c2cc3nc4c(c(C(F)(F)F)n3n2)CCCC4)cc1,-0.059
7,CCOc1ccc(CNC(=O)c2ccc(Sc3ccc(Cl)cc3)c(NC(C)=O)c2)cc1OC,0.0794
8,O=C1CCCc2c1cc(C(=O)NC1CCSC1=O)c(=O)n2-c1ccccc1 (stereo not drawn),-0.276
9,COc1ccc(NC(=O)CN2CCCN(S(=O)(=O)c3ccc(F)cc3)CC2)cc1,-0.00587
10,Cc1cccnc1NC1OC(=O)c2ccccc21 (stereo not drawn),0.202
11,COc1ccc2nc3sc(C(=O)NCCN4CCc5ccccc5C4)cc3cc2c1,-0.0482
12,Cc1ccc(OCCC(=O)OCC(=O)C(C)(C)C)cc1,-0.197
13,CCc1ccc(Nc2nc(N)nc(CSc3nc4ccccc4s3)n2)cc1,-1.21
14,CC1(C)Cc2nc3nc(SCC(=O)NCCc4ccccc4)n(-c4ccccc4)c(=O)c3cc2CO1,0.541
15,O=C(CN1C(=O)COc2ccccc21)NCc1ccccn1,0.219
16,O=C(CC(Sc1n[nH]c(-c2ccccc2)n1)c1ccccc1)NCc1ccccc1 (stereo not drawn),-0.149
17,Cc1ccc(CC(=O)N2CC(C)OC(C)C2)cc1 (stereo not drawn),0.364
18,CC(C)(C)c1ccc(C(=O)N2CCCN(C(=O)c3ccc(C(C)(C)C)cc3)CC2)cc1,-0.188
19,Oc1ccccc1C=NC(c1ccccc1)C(O)c1ccccc1 (stereo not drawn),-0.186
20,Cc1[nH]c(=O)[nH]c(=O)c1S(=O)(=O)N1CCCC(C(=O)NCCc2ccc(Cl)cc2)C1 (stereo not drawn),-0.14
21,Cn1c(=O)c2c(nc(CN3CCN(C(=O)c4ccco4)CC3)n2CCCc2ccccc2)n(C)c1=O,-0.0502
22,CC(C)NS(=O)(=O)c1ccc(OCC(=O)Nc2ccc3c(c2)OCCO3)cc1,-0.176

row,SMILES,z-score
1,Cc1cc(C)n2nc(C(=O)NCCc3ccccc3)nc2n1,-0.0762
2,O=C(NNC(=O)c1cc(O)c(O)c(O)c1)NC1CCCCC1,-0.0107
3,CCn1c(SCC(=O)NCCc2ccccc2)nc2c(c1=O)SC(C)C2 (stereo not drawn),-1.26
4,Cc1cc(/C=N\O)c(C)n1-c1ccncc1,0.562
5,Cc1ccc(CS(=O)(=O)Cc2ccc(C(=O)NCCCN3CCOCC3)o2)cc1,-0.221
6,CCCCCCCCSc1nnc(CSc2nc3nc(C)cc(C)n3n2)o1,-0.0354
7,COCCNC(=O)C1CC(=O)N(c2ccc(F)c(Cl)c2)C1 (stereo not drawn),0.538
8,CC(C)NC(=O)c1ccc(CNC(=O)OCC(F)(F)F)cc1,0.123
9,Cc1ccc(NC(=O)CC2S/C(=N/N=C/c3c[nH]c4ccccc34)NC2=O)cc1 (stereo not drawn),-0.197
10,Cc1cc(C)[n+]2n1C(=O)C(c1ccccc1)=C2[O-],2.57
11,Cn1c(=O)c2c(SCc3ccccn3)nc(-c3ccccc3)nc2n(C)c1=O,-0.403
12,CCNC(=O)N1CCNC(=O)C1CC(=O)OC (stereo not drawn),-0.0425
13,COc1ccc(/C=N/Nc2cc(C)nc(NS(=O)(=O)c3ccc(C)cc3)n2)cc1,-0.501
14,CCC(C)N(C(=O)CSc1nc(-c2ccccc2)cs1)C1CCS(=O)(=O)C1 (stereo not drawn),0.927
15,CN(C)S(=O)(=O)c1ccc(NC(=O)c2c(F)cccc2Cl)cc1,-0.0238
16,O=C(O)C1C2C=CC3(O2)C1C(=O)N1c2ccccc2C2OCCC2C13 (stereo not drawn),0.326
17,CCCSc1nc(C)c(CC(=O)O)c(=O)[nH]1,0.00302
18,O=C(NCCN1CCOCC1)c1csc2c1CCCC2,0.0583
19,N#CC1=C(N)N(c2ccccc2)C(c2cccc([N+](=O)[O-])c2)C1(C#N)C#N (stereo not drawn),-0.422
20,O=C(CSc1nc2ccc(Cl)cc2[nH]1)NCc1ccco1,-0.042
21,Cc1c(OCc2ccccc2)c(=O)ccn1Cc1ccc(Cl)cc1,-0.131
22,COC(=O)[C@H](CCSC)NC(=O)NCc1ccccn1,0.183

row,SMILES,z-score
1,Cc1cc(C)nc(-n2ncc3c2CC(c2ccc(C(C)C)cc2)CC3=O)n1 (stereo not drawn),-0.724
2,COc1ccc(CCNc2nncc(=O)[nH]2)cc1OC,-0.392
3,Cc1ccc(NC(=O)COC(=O)CN2C(=O)COc3ccccc32)cc1,0.349
4,Cc1ccc(CSc2nc3ccsc3c(=O)n2Cc2ccccn2)cc1,-0.158
5,Cc1cccc2sc(NC(=O)C3CCCN(S(=O)(=O)c4cccc5nonc45)C3)nc12 (stereo not drawn),0.344
6,CO/N=C/c1ccc(N2CCN(C(=O)c3ccc(F)cc3)CC2)c([N+](=O)[O-])c1,-0.0861
7,COC(=O)CSc1nsc(SCC(=O)OC)c1C#N,-1.31
8,CC(=O)C1=NN(c2ccccc2)C(c2ccc3c(c2)OCO3)N1c1ccc(N2CCOCC2)cc1 (stereo not drawn),-0.272
9,Cc1nc(N)nc(-c2ccccc2O)n1,-0.0718
10,CC(C(=O)Nc1ccccc1Br)c1ccc([N+](=O)[O-])cc1 (stereo not drawn),-0.249
11,CCCCCC(=O)NC(=S)Nc1ccc(Cl)cn1,0.107
12,CCOc1nc(Nc2ccc([N+](=O)[O-])cc2)nc(NC(C)(C)C)n1,-0.416
13,COc1cccc(CSc2nc3sc(C)c(C)c3c(=O)n2Cc2ccco2)c1,-0.922
14,COC(=O)c1ccc(C(=O)OC)c(NC(=O)COC(=O)c2ccccc2OC)c1,-0.349
15,Cn1c(N)c(C(=O)COC(=O)C23CC4CC(CC(C4)C2)C3)c(=O)n(C)c1=O,0.00208
16,CCOc1cc(S(=O)(=O)NCc2ccc3c(c2)OCO3)c(C)cc1C,0.0193
17,CN1C(=S)SC(N2OC3C(=O)N(c4ccccc4)C(=O)C3C2c2ccc(Cl)cc2)C1(C)C (stereo not drawn),0.274
18,COC(=O)c1c(C)oc2ccc(N(C(=O)c3ccncc3)S(=O)(=O)c3ccc(C)cc3)cc12,-0.348
19,COC(=O)CSc1nnc(CNS(=O)(=O)c2ccc(Cl)cc2)n1C,0.115
20,C=CCOc1ccc(/C=N/n2cncn2)cc1OC,-1.97
